The full ranking holds about 33,000 sequences; the median of “E-score (-0.5 to 0.5)” is about -0.021, and the highest 2% start at about 0.32. Some of the results follow.
Biological target: T1, Zap1 (UniProt P47043)
T1 sequence: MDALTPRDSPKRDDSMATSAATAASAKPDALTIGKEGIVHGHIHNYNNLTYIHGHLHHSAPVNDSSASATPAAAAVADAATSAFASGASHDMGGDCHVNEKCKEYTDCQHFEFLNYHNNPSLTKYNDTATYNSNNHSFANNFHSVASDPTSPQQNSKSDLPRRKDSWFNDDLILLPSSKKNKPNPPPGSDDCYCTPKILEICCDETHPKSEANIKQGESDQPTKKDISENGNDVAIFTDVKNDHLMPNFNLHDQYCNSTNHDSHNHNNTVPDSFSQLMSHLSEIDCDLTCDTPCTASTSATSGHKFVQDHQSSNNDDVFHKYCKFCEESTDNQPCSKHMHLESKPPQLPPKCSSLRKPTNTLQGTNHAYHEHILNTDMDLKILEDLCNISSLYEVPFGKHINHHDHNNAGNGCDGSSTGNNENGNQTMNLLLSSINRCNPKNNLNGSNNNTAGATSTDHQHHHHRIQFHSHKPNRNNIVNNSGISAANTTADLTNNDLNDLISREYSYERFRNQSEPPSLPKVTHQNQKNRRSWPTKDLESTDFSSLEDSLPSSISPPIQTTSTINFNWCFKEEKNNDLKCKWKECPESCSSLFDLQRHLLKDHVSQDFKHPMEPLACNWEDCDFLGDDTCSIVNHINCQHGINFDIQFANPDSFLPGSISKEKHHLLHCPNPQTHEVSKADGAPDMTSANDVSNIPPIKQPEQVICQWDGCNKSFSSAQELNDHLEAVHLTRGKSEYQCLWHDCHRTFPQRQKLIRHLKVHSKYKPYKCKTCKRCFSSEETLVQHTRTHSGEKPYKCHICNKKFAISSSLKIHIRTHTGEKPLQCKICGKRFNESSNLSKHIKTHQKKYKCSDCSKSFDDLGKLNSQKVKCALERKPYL
Test: PBM E-score (8-mer binding enrichment) (E-score (-0.5 to 0.5)); higher = stronger / more preferred TF binding; most listed sequences are background and not binding sites
Conditions: protein concentration: 200 nM; construct: GST-full length
How it was run: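 The E-score, a modified Wilcoxon-Mann-Whitney statistic, was computed by the Universal PBM Analysis Suite for every ungapped eight-base word pooled with its reverse complement. Scans behind it were normalised with masliner after bound GST-tagged yeast transcription factors were detected with fluorescent anti-GST. The proteins, at about 100-200 nM, had been applied to universal all-10-mer Agilent arrays made double-stranded by primer extension.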

Row | Sequence | PBM E-score
1 | GACGTCTC | -0.146
2 | GAGTGAAA | -0.0284
3 | ATCTAGGG | 0.033
4 | TCCAACCA | 0.0488
5 | ATCGTGCC | -0.204
6 | CTGAGCAA | -0.0279
7 | CCTTGCAC | 0.207
8 | GAACGTTC | -0.179
9 | AGCGATTA | 0.0404
10 | ATTGCCAC | -0.0476
11 | GAGCGTAC | -0.162
12 | AGCCGAAG | -0.141
13 | CCGTGGCC | -0.0108
14 | ATCCATGA | -0.0518
15 | CAGGACCA | 0.0521
16 | CTGAAAAG | 0.0309
17 | CGTGAGGA | -0.201
18 | GGACCGCA | 0.138
19 | ACTCAACA | -0.033
20 | CTTACCGC | 0.154
21 | AGACGCAG | -0.244
22 | CTACCAAC | 0.0582
23 | AGTTACCC | 0.268
24 | GCCAATGA | -0.165
25 | GACGCTGC | -0.143

Row | Sequence | PBM E-score
26 | ACTAAAGA | 0.00061
27 | CAGTTTTA | 0.124
28 | ACCCTAGA | 0.359
29 | CCAGGTAG | 0.118
30 | CAGTCCAC | -0.162
31 | ATCAGGAT | 0.00655
32 | CTTCAAAG | -0.0735
33 | ATGTACAG | -0.153
34 | CAATTCGA | -0.0319
35 | GCTTATCC | -0.229
36 | CGACGTAG | -0.0869
37 | ATGTCCAG | -0.25
38 | AGAGATGC | -0.143
39 | ATCCGGAT | -0.0587
40 | ATCCGGTA | 0.122
41 | AGAATTTC | -0.148
42 | GGATCGAC | -0.0383
43 | ACCGTACG | -0.149
44 | ATTTGAAA | 0.12
45 | ACAACCCT | 0.443
46 | ACATCAAA | 0.0674
47 | CCAAAGGA | -0.106
48 | CACCGGCG | 0.078
49 | AACCTGAT | 0.177
50 | AATACTGT | 0.114

Row | Sequence | PBM E-score
51 | CCAGCTTA | -0.133
52 | AATATAAG | 0.248
53 | GGCAGAGA | -0.111
54 | TGACGCAA | 0.00972
55 | AACTGCAT | -0.0988
56 | AATATGCT | -0.0515
57 | CGGCCATC | -0.0256
58 | ACGAATCA | 0.00515
59 | CAATCCTC | -0.16
60 | TAATGTGA | 0.0753
61 | ATGGAGCC | -0.222
62 | AGTGGGGG | -0.362
63 | AGAAGTTG | -0.0206
64 | CAAGGCAC | -0.133
65 | GTAGTTCA | 0.0574
66 | CCCCGGGC | -0.133
67 | CTGTGGAC | -0.0654
68 | TATAAGCA | 0.028
69 | GTACCTGA | 0.233
70 | AAGCACTG | 0.0765
71 | AACTCCTA | 0.0957
72 | AGATATTG | 0.0866
73 | GAGGACTC | -0.266
74 | CCGTTTGC | 0.0589
75 | CAAATCGA | -0.013

Row | Sequence | PBM E-score
76 | ATACGTTC | -0.294
77 | GGTGCTTA | 0.0113
78 | ACTCTATC | -0.22
79 | CAACAAAG | 0.285
80 | CCGCAATA | 0.259
81 | GACGCCGC | -0.11
82 | ACCCGGCA | 0.122
83 | ACAGTACG | 0.182
84 | GATACGAA | -0.0257
85 | ATGCGCAT | 0.0779
86 | AATAGTAC | 0.0121
87 | CGATGAGC | -0.0656
88 | ATCGGGCG | -0.149
89 | CGTTTGAA | 0.0456
90 | CGTACGAG | -0.232
91 | GCGTGAAC | -0.0366
92 | CTATGAAG | -0.00627
93 | AAGGTGGC | 0.164
94 | AGTAAAAA | -0.0203
95 | GCTCTGTA | -0.0845
96 | AGTAGGGA | -0.245
97 | CTACGCTC | -0.174
98 | ATCTCCTC | -0.179
99 | ACCACCGT | 0.119
100 | AATGAACC | 0.171

Row | Sequence | PBM E-score
101 | AATATTCC | 0.101
102 | ACGGGGGG | -0.41
103 | AGCCTCAC | -0.117
104 | CCGAATGA | -0.0117
105 | CGGCGCAC | -0.237
106 | ATTTTGCG | 0.00576
107 | CCGTCGAG | -0.0651
108 | GCGCCCCC | -0.233
109 | AAATAATT | 0.184
110 | AGAAGTCA | -0.0338
111 | AGGCGCGC | -0.113
112 | CTCCTGCA | -0.284
113 | ATACTGTC | 0.00318
114 | AGAGAACG | 0.00415
115 | ATGTTTAA | 7e-05
116 | CGACAGAA | 0.0464
117 | GAGTCTAA | -0.0295
118 | ACAAAGGG | 0.0567
119 | CGGCTACG | -0.0443
120 | CATCCGAG | -0.0532
121 | GGCACACA | -0.229
122 | CGTGTTAA | 0.112
123 | GCTTTCAA | 0.0137
124 | CGTGCCAC | -0.136
125 | ATTGCTAG | -0.109

Row | Sequence | PBM E-score
126 | ACAGGCTC | -0.254
127 | GGAGCTCA | -0.268
128 | CGGTTCAA | -0.0126
129 | GGGGTAAC | 0.37
130 | AGCGTGGA | -0.307
131 | ATCACAAA | 0.13
132 | GCCAGGGA | -0.174
133 | CACAGCCG | -0.0328
134 | CTCAGAAC | 0.133
135 | CCGTTAAA | 0.143
136 | AGTCCTTA | -0.0359
137 | AACATCGA | -0.0109
138 | CAGGTCGG | 0.0464
139 | GCAGGAGA | -0.174
140 | ACCACTTA | 0.171
141 | CTATCCGC | -0.0609
142 | GACCCAGC | -0.127
143 | CTTATTGA | 0.0126
144 | ATACTACG | 0.0566
145 | CAGCCATC | -0.176
146 | AGCGGGCG | -0.118
147 | ACCCGTAT | 0.301
148 | GCGTCTAC | -0.203
149 | AGATTCTA | -0.0432
150 | CAAAGTAC | 0.204

Row | Sequence | PBM E-score
151 | CACGAATA | 0.0447
152 | AATTAAAC | 0.148
153 | AGGCTTAG | -0.0547
154 | GCAAGGAA | 0.00893
155 | TAGTAATA | 0.0882
156 | AGATGGGC | -0.171
157 | ACTACCAT | 0.269
158 | ACTAGGGA | -0.072
159 | AAGCTTAT | -0.106
160 | AACAACAC | 0.151
161 | CCATTCGG | 0.234
162 | AAGAGACT | -0.107
163 | AGATATCT | 0.0317
164 | CTCGGTAA | 0.13
165 | CATCAATA | 0.0615
166 | ACCGATAT | 0.0908
167 | CGAAACCA | 0.176
168 | AACATTAC | 0.0514
169 | CAATAGGA | -0.0819
170 | CGAACCCG | 0.0694
171 | ACAAACGC | -0.0115
172 | ACGCCGAA | -0.204
173 | CTCATATA | -0.0108
174 | CGCATCCC | -0.134
175 | GTTAAGTA | 0.159

Row | Sequence | PBM E-score
176 | AATATCGA | 0.0312
177 | CGCCGGTA | 0.0825
178 | CACGGGAG | -0.246
179 | CAGCCGAA | -0.23
180 | ACGGGCCT | -0.0832
181 | GATCCGGC | -0.159
182 | AAACTATT | 0.0503
183 | CGCGAAAC | 0.0458
184 | AGCGCAGA | -0.0767
185 | CGTACGTA | -0.0468
186 | GCATTCCA | -0.161
187 | ATGGTGAA | -0.0722
188 | AAAACTAA | 0.231
189 | CTGATGCA | -0.119
190 | ATGAATCC | -0.0638
191 | ATCTTTAG | 0.128
192 | CCGATGAC | -0.019
193 | TATACGCA | -0.0608
194 | CCACTCGG | -0.104
195 | AGTCGCGC | 0.0514
196 | ACAGCGAT | -0.135
197 | CGTCCTGC | -0.341
198 | CGATGACC | 0.305
199 | ACCAATTC | 0.00864
200 | CGGCTCCA | -0.176

Row | Sequence | PBM E-score
201 | CAAACAGA | 0.108
202 | ATTCCGCC | -0.128
203 | CATGTTGC | -0.148
204 | CCAGTGCG | -0.279
205 | ATCTAGGA | -0.0827
206 | ATGATAAG | 0.135
207 | AATAAGGT | 0.128
208 | ACAAGCGT | -0.161
209 | CCAACCCA | -0.0486
210 | ATTCAGGC | -0.084
211 | CCACGGTC | -0.0824
212 | ACGACCAT | -0.154
213 | AAAGGCGA | -0.218
214 | GGCGCTAC | -0.159
215 | ACACGGTG | -0.121
216 | CGGATCGA | -0.196
217 | GTGCATCA | -0.11
218 | AGAGCGTC | -0.146
219 | GGCAGCTA | -0.0584
